The other results are listed elsewhere or left out.
test system: S. aureus RN4220; assay: growth inhibition call (relative growth <= 0.2); details: 50 µM

Growth inhibition call, inactive:
C[C@@H]1CN([C@H](C)CO)C(=O)c2cc(NC(=O)Nc3ccccc3)ccc2O[C@@H]1CN(C)CC1CCCCC1
COC(=O)[C@@H]1N2C(=O)[C@@H](N3C[C@](C)(OC)O[C@@H](Cc4ccccc4)[C@H]3/C=C/C3CC3)[C@H]2SC1(C)C
Cc1ccc(S(=O)(=O)Nc2ccc3c(c2)C(=O)N(C)[C@H]2CC[C@@H](CC(=O)NCCc4ccncc4)O[C@@H]2CO3)cc1
O=C(OC1Cc2c(O)cc(O)cc2OC1c1cc(O)c(=O)c2c(O)c(O)cc(C3Oc4cc(O)cc(O)c4CC3O)c2c1)c1cc(O)c(O)c(O)c1 (stereo unspecified)
Cc1ccc(S(=O)(=O)Nc2ccc3c(c2)C(=O)N([C@H](C)CO)C[C@H](C)[C@H](CN(C)C(=O)CCC(F)(F)F)OCCCC[C@@H](C)O3)cc1
CC(C)NC(=O)Nc1ccc2c(c1)C(=O)N([C@H](C)CO)C[C@H](C)[C@@H](CN(C)C(=O)Nc1cccc3ccccc13)OCCCC[C@H](C)O2
C[C@H](CO)N1C[C@H](C)[C@H](CN(C)S(=O)(=O)c2ccccc2)Oc2c(NC(=O)c3cnccn3)cccc2C1=O
C=CCOC(=O)[C@@H]1[C@H]2C(=O)O[C@H](c3ccccc3)[C@H](c3ccccc3)N2[C@H](c2ccc(OCCOC(=O)[C@H]3C[C@H]4C(=O)N[C@@H](CC(C)C)C(=O)N4[C@H]3c3cccc(OCCO)c3)cc2)[C@@]12C(=O)Nc1ccccc12
C[C@@H]1CN([C@@H](C)CO)C(=O)c2cc(NC(=O)Nc3ccc4c(c3)OCO4)ccc2O[C@@H](C)CCCCO[C@@H]1CN(C)S(=O)(=O)c1ccccc1
N[C@H]1CCC[C@@H]1Cc1ccc(F)cc1
C[C@@H]1CCCCO[C@@H](CN(C)Cc2ccccc2)[C@H](C)CN([C@@H](C)CO)C(=O)c2cc(NC(=O)NC3CCCCC3)ccc2O1

From the antibiotic and cytotoxicity screens of Wong et al. (2023)
